These are yes or no findings as the source states them, for the method shown. Binding seen in cells or lysates may run through a third protein. Some entries that bind do so weakly or less than the wild type. For some of these results: Tags and fused reporters may be left off the sequences shown.

Protein sequences, listed by entry. Tags and fused reporters are not part of them. Residues count along the entry.
UniProt P01135, residues 24-160: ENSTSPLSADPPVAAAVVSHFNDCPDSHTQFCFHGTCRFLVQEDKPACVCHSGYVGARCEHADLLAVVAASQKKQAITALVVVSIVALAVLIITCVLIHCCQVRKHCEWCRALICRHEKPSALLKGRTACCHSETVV
UniProt O14944, residues 30-169: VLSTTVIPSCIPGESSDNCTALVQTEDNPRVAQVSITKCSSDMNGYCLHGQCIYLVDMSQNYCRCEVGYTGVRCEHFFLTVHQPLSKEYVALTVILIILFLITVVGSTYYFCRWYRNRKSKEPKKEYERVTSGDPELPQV
UniProt Q99075, residues 20-208: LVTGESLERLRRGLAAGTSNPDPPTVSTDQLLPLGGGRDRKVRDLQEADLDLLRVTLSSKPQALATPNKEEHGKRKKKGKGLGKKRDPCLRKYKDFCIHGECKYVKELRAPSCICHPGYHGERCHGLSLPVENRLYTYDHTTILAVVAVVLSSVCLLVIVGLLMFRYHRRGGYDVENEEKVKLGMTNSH
UniProt P01133, residues 23-1207: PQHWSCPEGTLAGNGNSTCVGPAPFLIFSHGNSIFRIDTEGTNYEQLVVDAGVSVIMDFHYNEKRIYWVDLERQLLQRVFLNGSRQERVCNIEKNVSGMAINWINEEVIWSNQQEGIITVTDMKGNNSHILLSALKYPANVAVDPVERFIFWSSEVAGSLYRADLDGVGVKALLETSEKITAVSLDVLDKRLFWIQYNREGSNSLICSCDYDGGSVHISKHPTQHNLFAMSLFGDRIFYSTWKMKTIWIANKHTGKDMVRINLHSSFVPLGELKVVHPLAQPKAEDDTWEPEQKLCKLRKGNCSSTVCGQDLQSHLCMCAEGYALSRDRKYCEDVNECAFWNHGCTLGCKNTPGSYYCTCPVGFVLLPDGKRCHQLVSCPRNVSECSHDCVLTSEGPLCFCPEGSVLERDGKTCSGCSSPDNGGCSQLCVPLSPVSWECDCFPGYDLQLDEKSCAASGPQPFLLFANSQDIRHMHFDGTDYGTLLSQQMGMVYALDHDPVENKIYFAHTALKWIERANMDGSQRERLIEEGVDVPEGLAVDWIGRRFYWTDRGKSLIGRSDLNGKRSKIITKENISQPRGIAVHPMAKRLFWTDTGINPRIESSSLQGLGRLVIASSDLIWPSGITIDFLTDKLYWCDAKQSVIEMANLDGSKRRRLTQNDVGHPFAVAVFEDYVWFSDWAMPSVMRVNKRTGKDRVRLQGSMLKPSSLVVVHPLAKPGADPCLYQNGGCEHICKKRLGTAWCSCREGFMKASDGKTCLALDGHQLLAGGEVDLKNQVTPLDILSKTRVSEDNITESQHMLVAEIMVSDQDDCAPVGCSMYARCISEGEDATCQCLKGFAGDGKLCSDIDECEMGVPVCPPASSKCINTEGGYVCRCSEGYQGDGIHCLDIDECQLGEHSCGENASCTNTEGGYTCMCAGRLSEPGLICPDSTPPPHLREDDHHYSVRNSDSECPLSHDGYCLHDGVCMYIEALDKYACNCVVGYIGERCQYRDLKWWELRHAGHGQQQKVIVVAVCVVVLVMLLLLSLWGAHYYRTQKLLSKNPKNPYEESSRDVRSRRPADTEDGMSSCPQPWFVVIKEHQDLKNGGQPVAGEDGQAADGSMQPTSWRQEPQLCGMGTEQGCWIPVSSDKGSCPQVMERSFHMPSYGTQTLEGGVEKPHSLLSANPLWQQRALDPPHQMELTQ

The target of one assay is T1, RHBDD1wt-Myc (human) (UniProt Q8TEB9).
T1 sequence: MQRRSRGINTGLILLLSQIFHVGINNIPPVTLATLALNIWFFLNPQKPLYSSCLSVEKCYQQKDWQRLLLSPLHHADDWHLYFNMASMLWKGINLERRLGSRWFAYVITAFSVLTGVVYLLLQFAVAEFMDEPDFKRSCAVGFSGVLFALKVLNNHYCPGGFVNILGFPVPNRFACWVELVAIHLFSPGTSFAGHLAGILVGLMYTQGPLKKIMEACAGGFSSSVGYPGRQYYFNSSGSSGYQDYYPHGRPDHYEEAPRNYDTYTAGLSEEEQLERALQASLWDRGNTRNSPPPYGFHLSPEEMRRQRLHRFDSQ
Nature of the assay: co-IP; HEK293T cells transiently co-transfected, 48 h; lysis in 50 mM Tris-HCl pH 7.4, 150 mM NaCl, 1% NP-40, 1 mM EDTA, 10% glycerol; anti-V5 or anti-Myc affinity gel (bidirectional); immunoblot with anti-Myc or anti-V5. In general terms: In western blotting, separated proteins are transferred to a membrane and probed.

The target in assay [1] is T2, RHBDD1 with FLAG and SBP epitopes knocked in at the COOH terminus (endogenous locus, HCT116) (human (endogenous in HCT116)) (UniProt Q8TEB9).
T2 sequence: T1 sequence
Nature of the assay: co-IP; targeted knock-in HCT116 cell lysate (50 mM Tris-HCl pH 7.4, 100 mM NaCl, 0.5% NP-40, 1 mM EDTA); anti-FLAG M2 affinity gel or control IgG; immunoblot with anti-proTGFα or anti-FLAG.

Another assay concerns the target GST-proTGFα (UniProt P01135). Description: pull-down; 2 μg purified GST-proTGFα or GST immobilized on glutathione-Sepharose beads, mixed with 400 μg HCT116 cell lysate (50 mM Tris-HCl pH 7.4, 150 mM NaCl, 1% NP-40, 1 mM EDTA), 2 h at 4 °C; immunoblot with anti-RHBDD1; only the target purified.

In the case of “epiregulin (V5-tagged expression construct) (from UniProt O14944 30-169) (ligand)”, the binding result with RHBDD1wt-Myc (human) was “no binding”.

For “HB-EGF (V5-tagged expression construct) (from UniProt Q99075 20-208) (ligand)”, the binding entry with RHBDD1wt-Myc (human) was “no binding”.

On to “proTGFα-V5 (from UniProt P01135 24-160) (ligand)”, for which the binding entry with RHBDD1wt-Myc (human) was “binds”.

On to “EGF (V5-tagged expression construct) (from UniProt P01133 23-1207) (ligand)”, for which the binding entry with RHBDD1wt-Myc (human) is “no binding”.

On to “endogenous proTGFα (from UniProt P01135 24-160) (ligand)”, for which the binding result in assay [1] is “binds”.

B1: betacellulin (V5-tagged expression construct) (ligand, UniProt P35070 32-178)
chain: DGNSTRSPETNGLLCGDPEENCAATTTQSKRKGHFSRCPKQYKHYCIKGRCRFVVAEQTPSCVCDEGYIGARCERVDLFYLRGDRGQILVICLIAVMVVFIILVIGVCTCCHPLRKRRKRKKKEEEMETLGKDITPINEDIEETNIA
For B1, the binding result with RHBDD1wt-Myc (human) is on record as “no binding”.

B2: RHBDD1 (endogenous, HCT116 cell lysates) (enzyme, UniProt Q8TEB9 1-315)
chain: T1 sequence
For B2, the binding result with GST-proTGFα is “binds”.
